In all, about 33,000 sequences were measured (“E-score (-0.5 to 0.5)”: median about -0.053, highest 2% from about 0.37 on). The list shows a part of the results.
Target: Hap1 (UniProt P0CE41)
Assay: PBM E-score (8-mer binding enrichment) (E-score (-0.5 to 0.5)); higher = stronger / more preferred TF binding; most listed sequences are background and not binding sites
Settings: protein concentration: 200 nM; construct: GST-DNA-binding domain
How it was run: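 Masliner-normalised scans of fluorescent anti-GST signal were the basis for scoring. That signal came from GST-tagged yeast transcription factors applied at about 100-200 nM to double-stranded universal all-10-mer Agilent arrays on fresh or once-stripped slides. Each ungapped eight-base word, pooled with its reverse complement, received an E-score from the Universal PBM Analysis Suite.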

UniProt P0CE41, sequence (P0CE41 whole entry): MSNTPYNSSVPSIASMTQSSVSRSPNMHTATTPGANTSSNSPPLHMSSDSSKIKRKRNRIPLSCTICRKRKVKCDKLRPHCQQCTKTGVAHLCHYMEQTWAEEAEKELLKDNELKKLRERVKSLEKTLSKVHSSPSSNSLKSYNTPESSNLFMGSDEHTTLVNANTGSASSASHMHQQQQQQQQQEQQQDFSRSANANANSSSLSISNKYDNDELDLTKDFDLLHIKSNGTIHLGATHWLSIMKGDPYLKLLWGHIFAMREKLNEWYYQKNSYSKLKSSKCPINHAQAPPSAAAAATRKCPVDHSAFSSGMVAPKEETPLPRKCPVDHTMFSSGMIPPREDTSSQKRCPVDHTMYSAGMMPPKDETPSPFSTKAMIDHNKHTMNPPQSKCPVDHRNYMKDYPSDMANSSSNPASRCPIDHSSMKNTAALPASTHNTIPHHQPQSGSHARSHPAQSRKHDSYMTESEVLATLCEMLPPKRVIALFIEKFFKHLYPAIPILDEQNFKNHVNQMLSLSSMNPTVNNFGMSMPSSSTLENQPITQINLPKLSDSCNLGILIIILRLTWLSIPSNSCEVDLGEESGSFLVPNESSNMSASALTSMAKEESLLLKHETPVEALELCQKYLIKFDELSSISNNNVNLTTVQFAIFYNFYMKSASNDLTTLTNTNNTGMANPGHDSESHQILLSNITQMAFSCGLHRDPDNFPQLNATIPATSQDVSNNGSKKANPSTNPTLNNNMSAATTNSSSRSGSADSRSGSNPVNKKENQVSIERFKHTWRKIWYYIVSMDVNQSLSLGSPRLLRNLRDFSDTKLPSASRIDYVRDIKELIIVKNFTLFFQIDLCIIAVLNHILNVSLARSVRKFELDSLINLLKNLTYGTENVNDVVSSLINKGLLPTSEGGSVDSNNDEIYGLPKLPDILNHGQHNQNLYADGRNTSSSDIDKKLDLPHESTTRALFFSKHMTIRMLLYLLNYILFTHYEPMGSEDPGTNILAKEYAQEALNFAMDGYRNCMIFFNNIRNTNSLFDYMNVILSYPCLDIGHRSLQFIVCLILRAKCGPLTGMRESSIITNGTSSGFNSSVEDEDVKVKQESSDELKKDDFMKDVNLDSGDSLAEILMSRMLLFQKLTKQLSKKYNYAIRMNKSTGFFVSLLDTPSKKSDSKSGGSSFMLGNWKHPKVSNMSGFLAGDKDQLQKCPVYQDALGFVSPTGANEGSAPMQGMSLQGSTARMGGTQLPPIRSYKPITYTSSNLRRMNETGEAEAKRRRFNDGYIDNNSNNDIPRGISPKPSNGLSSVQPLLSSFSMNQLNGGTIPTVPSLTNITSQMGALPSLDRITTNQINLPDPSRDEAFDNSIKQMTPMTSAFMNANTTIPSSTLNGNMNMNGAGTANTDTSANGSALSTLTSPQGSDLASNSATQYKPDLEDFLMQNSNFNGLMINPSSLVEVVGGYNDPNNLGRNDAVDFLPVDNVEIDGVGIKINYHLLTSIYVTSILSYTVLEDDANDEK

| Sequence | PBM E-score |
| --- | --- |
| CTCTTAGC | -0.0852 |
| GAATAACA | 0.0585 |
| AGCGGCGC | 0.185 |
| CGACATCA | -0.013 |
| GGGAGCCA | -0.251 |
| AGATAGTA | 0.0324 |
| GCCCTTAA | 0.105 |
| GAAGGGTC | 0.00905 |
| ATAAGTTC | 0.303 |
| CCCGACGG | 0.331 |
| TATCGCCA | 0.189 |
| CATCACAA | -0.218 |
| TATCGACA | -0.0811 |
| ACAAGTCT | -0.304 |
| AGACATAT | -0.206 |
| CACTCGTC | -0.0866 |
| GAACTACA | 0.0417 |
| GTGATCCA | -0.209 |
| AAAGCCGG | 0.439 |
| CTACTCAG | -0.295 |
| TACGTGAA | -0.167 |
| CTAAGGGA | -0.108 |

| Sequence | PBM E-score |
| --- | --- |
| AATGCCTG | -0.209 |
| AGCGGTCC | 0.186 |
| AACAAGAG | -0.207 |
| CATGCCAC | -0.108 |
| AAAATTAA | -0.1 |
| CTTTCACA | -0.0482 |
| GCGGCCTA | -0.0386 |
| GAGTGAGA | -0.0217 |
| ATAGCCAT | -0.21 |
| AGTTGGGA | -0.125 |
| CTACCAGA | -0.0785 |
| ACGACACA | -0.28 |
| ATAGCTCG | 0.11 |
| CTGATGAA | -0.367 |
| AACCTGTC | -0.155 |
| ATTCGACC | -0.0677 |
| CGCGTTCC | 0.126 |
| TGTAATAA | -0.121 |
| TCACAAGA | -0.127 |
| ATGCGTAC | -0.0502 |
| GTTTGCGA | -0.00112 |
| CGCCGAAC | 0.344 |

| Sequence | PBM E-score |
| --- | --- |
| CGCAGCCA | -0.124 |
| GGTCACGA | -0.128 |
| CGGCAGAA | 0.217 |
| TGGAACCA | -0.063 |
| CAAGGTGA | -0.159 |
| ATAACCGA | 0.386 |
| GCAGTGCC | -0.0503 |
| ATATGTCA | -0.0291 |
| AGATTCCT | -0.194 |
| GCCTATAC | 0.0541 |
| CAAGTAAG | -0.197 |
| GCATCTGA | -0.171 |
| CAGCGAGG | -0.142 |
| AAACGATT | -0.043 |
| CCATTTGC | -0.116 |
| ACGAACCA | -0.038 |
| GACCGTCC | 0.146 |
| AACACGTA | -0.187 |
| AACGTAGG | -0.148 |
| CCAAACAG | -0.269 |
| GAGTAGAC | -0.0721 |
| CAAAGCTC | -0.0216 |

| Sequence | PBM E-score |
| --- | --- |
| GAGCGCTA | -0.0038 |
| GCCAGGAA | -0.262 |
| AGTGACAT | -0.142 |
| AATTCATA | -0.164 |
| CCAGTTAA | -0.137 |
| GTTATCCA | 0.00074 |
| CCATAGAC | -0.225 |
| CTGTTTAC | -0.142 |
| ACTCTGCC | -0.189 |
| ACCGAGAA | 0.271 |
| CTCCTAAC | -0.191 |
| AATCATCA | -0.146 |
| ACAGCAGG | -0.0219 |
| CATGGAAA | -0.00359 |
| GAGTGGGA | -0.0227 |
| CCCATTAA | -0.116 |
| CCACGCGG | 0.0658 |
| GCTATTTA | -0.0431 |
| GAAGCATA | -0.141 |
| ATGACGGA | 0.195 |
